According to the supplement of paper PMC4723716:
± gives the uncertainty stated by the source. The full ranking holds about 9,900 compounds; the median of “viability index relative to DMSO control” is about 1, and the lowest 2% start at about 0.85. Some of the results follow.

tested on: Plasmodium falciparum NF54 stage V gametocytes; experiment: viability index relative to DMSO control (fraction); higher = less gametocyte killing; details: 2.5 µM, library set: Broad Institute DOS, incubation time: 72 h
Experimental: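 Broad DOS informer set and blood-stage-active DOS compounds screened in duplicate at 2.5 µM against P. falciparum NF54 stage V gametocytes with the serum-free one-step SaLSSA (1536-well): 72 h at 37 °C under low oxygen, then saponin lysis and MitoTracker Red CMXRos staining, with high-content imaging. Viability index = viable-object count divided by the plate mean of DMSO wells (0 = killed, about 1 = inactive).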

Compound	viability index
O=C(C[C@H]1CC[C@@H]2[C@H](COC[C@H](O)CN2C(=O)Nc2ccc(F)cc2)O1)NC1CCC1	1.11 ± 0.016
O=C(C[C@H]1C[C@@H]2c3cc(NS(=O)(=O)c4ccc(F)cc4)ccc3O[C@@H]2[C@@H](CO)O1)NCCN1CCCCC1	1.05 ± 0.014
CO[C@@H]1CN(C)C(=O)c2ccc(NC(=O)Nc3cc(F)ccc3F)cc2OC[C@H](C)N(C(=O)c2ccccn2)C[C@@H]1C	1.07 ± 0.12
O=C(NC[C@@H]1[C@@H](c2ccccc2)[C@H](CO)N1C(=O)C1CCC1)NC1CCCC1	1.01 ± 0.047
CCS(=O)(=O)N1C[C@@]2(C1)CN(Cc1cc(F)ccc1F)[C@@H](CO)c1c2c2ccc(OC)cc2n1C	0.927 ± 0.015
C[C@H](CO)N1C[C@H](C)[C@@H](CN(C)C(=O)Nc2ccc(C(F)(F)F)cc2)Oc2ccc(NC(=O)C3CCCCC3)cc2C1=O	0.982 ± 0.022
COc1ccccc1-c1cnc2c(c1)C(=O)N([C@@H](C)CO)C[C@@H](C)[C@H](CN(C)C(=O)CC1CC1)O2	1.06 ± 0.1
O=C(CC1CC1)N1CC(=O)N2[C@H](CO)[C@H](c3ccc(C#Cc4cccc(F)c4)cc3)[C@@H]2C1	0.9103 ± 0.0077
COc1ccc(CN(C)C[C@H]2OCCCC[C@@H](C)Oc3ccc(NC(=O)C4CCCCC4)cc3C(=O)N([C@@H](C)CO)C[C@@H]2C)cc1	0.905 ± 0.046
O=C(Nc1ccc2c(c1)[C@H]1C[C@H](CC(=O)N3CCCCC3)O[C@@H](CO)[C@H]1O2)NC1CCCCC1	0.981 ± 0.14
O=C(C[C@@H]1CC[C@H](NC(=O)Nc2ccc(C(F)(F)F)cc2)[C@H](CO)O1)NCc1cccc(F)c1	1 ± 0.024
COc1ccccc1S(=O)(=O)N1CC[C@@H]2[C@H]1c1cc(C#CC3CCCCC3)ccc1N[C@@H]2CO	1.22 ± 0.062
O=C(C[C@@H]1CC[C@H]2[C@@H](COC[C@H](O)CN2CCc2ccccc2)O1)NCCCN1CCOCC1	1.05 ± 0.044
Cc1cccc(S(=O)(=O)N2C[C@@H](O)COC[C@H]3O[C@H](CC(=O)Nc4ccccc4)CC[C@@H]32)c1	1.053 ± 0.0012
CNC[C@H]1Oc2c(NS(=O)(=O)c3ccc(Cl)cc3)cccc2C(=O)N([C@@H](C)CO)C[C@H]1C	1.01 ± 0.034
O=C(C[C@@H]1C[C@@H]2c3cc(NC(=O)CC4CC4)ccc3O[C@@H]2[C@H](CO)O1)NCC1CC1	1.062 ± 0.0029
COc1ccc(S(=O)(=O)Nc2ccc3c(c2)CC(=O)N([C@H](C)CO)C[C@@H](C)[C@H](CN(C)Cc2ccc(C(=O)Nc4ccccc4N)cc2)O3)cc1	0.966 ± 0.1
COCC(=O)N(C[C@H]1[C@H](c2ccccc2)[C@@H](CO)N1C(=O)NC(C)C)C(C)C	1 ± 0.04
COc1ccc2c3c([nH]c2c1)[C@H](CO)N(C[C@]31CCN(CC1)C(=O)Nc1ccc2OCOc2c1)C(=O)Nc1ccc(F)cc1	0.95 ± 0.1
